# Test results reported in PMC4336329 (PLoS ONE, 2015).
# The whole screen tested about 310,000 compounds, of which about 14,000 (4.5%) showed an effect of 50% or more. The effect is printed as a negative number. The list shows a part of the results.
# Biological target: human ether-à-go-go-related gene (hERG) potassium channel (human, UniProt Q12809)
# Assay: primary screen, population patch clamp on CHO cells stably expressing hERG
# 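Note: peak tail current of the secondary pulse compared with the same well before compound.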
# human ether-à-go-go-related gene (hERG) potassium channel, sequence (Q12809 whole entry, looked up): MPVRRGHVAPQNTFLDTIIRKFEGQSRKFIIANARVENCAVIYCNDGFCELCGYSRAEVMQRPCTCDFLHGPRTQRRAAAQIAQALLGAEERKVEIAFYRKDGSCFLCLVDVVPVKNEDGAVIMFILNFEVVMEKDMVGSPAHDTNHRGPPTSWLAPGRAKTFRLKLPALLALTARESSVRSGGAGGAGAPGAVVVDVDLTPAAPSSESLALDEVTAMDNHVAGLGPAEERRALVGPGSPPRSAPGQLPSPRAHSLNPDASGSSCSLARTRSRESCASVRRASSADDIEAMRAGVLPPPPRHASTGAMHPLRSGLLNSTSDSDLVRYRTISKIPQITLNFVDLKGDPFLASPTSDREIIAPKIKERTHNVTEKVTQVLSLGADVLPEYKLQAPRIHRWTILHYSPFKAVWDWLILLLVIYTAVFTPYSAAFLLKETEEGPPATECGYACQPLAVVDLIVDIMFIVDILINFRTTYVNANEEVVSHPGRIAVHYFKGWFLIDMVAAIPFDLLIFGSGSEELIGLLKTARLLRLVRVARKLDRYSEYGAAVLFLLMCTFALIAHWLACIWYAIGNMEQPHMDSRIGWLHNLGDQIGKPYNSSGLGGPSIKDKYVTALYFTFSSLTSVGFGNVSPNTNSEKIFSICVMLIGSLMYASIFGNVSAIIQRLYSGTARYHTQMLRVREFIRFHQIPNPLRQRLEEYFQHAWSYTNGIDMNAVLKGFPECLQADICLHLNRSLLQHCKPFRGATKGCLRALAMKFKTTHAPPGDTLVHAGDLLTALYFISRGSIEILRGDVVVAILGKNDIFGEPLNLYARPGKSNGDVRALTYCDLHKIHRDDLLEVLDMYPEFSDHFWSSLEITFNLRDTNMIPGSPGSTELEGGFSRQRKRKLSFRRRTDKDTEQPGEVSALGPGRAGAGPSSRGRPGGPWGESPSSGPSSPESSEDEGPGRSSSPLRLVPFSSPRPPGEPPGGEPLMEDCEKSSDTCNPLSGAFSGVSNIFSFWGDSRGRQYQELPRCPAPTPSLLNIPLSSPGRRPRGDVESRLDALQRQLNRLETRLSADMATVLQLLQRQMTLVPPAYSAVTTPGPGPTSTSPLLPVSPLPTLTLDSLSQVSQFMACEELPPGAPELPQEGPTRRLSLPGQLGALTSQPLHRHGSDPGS
row,SMILES,"hERG current change (%, negative = inhibition) at 10uM"
1,O=C(CC1Oc2ccccc2NC1=O)NCc1ccc(Cl)cc1 (stereo not shown),5.13%
2,CC(C)Oc1ccc(C2C(C#N)=C(N)Oc3c2oc(CO)cc3=O)cc1 (stereo not shown),-7.32%
3,C/C(=N/NC(=O)CN1CCN(S(=O)(=O)c2ccc(C)cc2)CC1)c1cccc(O)c1,-15%
4,O=C(NNC(=O)c1cc(Cl)ccc1O)c1ccc(NS(=O)(=O)c2cccs2)cc1,-20.7%
5,CCN1C2=C(C(=O)CCC2)C(c2ccc(O)cc2)C2=C1CCCC2=O,6.21%
6,C=CCNC(=O)COC(=O)CCC(=O)c1cccs1,1.42%
7,CCOC(=O)C1(Cc2ccccc2)CCN(Cc2cnn(CC)c2)CC1,-21.2%
8,C/C(=N\NC(=O)COc1ccc(C)cc1[N+](=O)[O-])c1cccs1,22.5%
9,CCOC(=O)c1c(C)[nH]c(C)c1S(=O)(=O)N(C)CC(=O)NCc1cccc(Br)c1,-25.1%
10,C[C@@H]1CCCCCCCCC(=O)OCCN1C(=O)OC(C)(C)C,-25.1%
11,Cc1ccc(N(Cc2ccc(C(=O)NCCSc3ccccn3)cc2)S(C)(=O)=O)cc1C,-4.82%
12,CC(C)c1ccccc1NC(=O)COc1ccc2c(=O)c(Oc3ccc4ccccc4c3)coc2c1,13.7%
13,Cc1ccc(NS(=O)(=O)c2ccc3[nH]c(=O)[nH]c3c2)cc1,21%
14,COC(=O)c1ccc(CNC(=O)COc2ccccc2Br)o1,-9.48%
15,CCn1c(SCC(=O)Nc2ccc(N3CCOCC3)cc2)nnc1-c1ccco1,-9.78%
16,Cc1ccc(CCNS(=O)(=O)c2cc3c(cc2C)n(C)c(=O)c(=O)n3C)cc1,-30.8%
17,COc1ccc(C(C)=O)cc1CC(=O)NC1CCCCCC1,0.141%
18,Cc1ccc(C(=O)N2CCN(S(=O)(=O)c3ccc(C)c([N+](=O)[O-])c3)C2)cc1,-42.7%
19,CS/C(=C\[N+](=O)[O-])Nc1ccc(Cl)cc1,5.73%
20,CCOCCCNC(=O)c1cn(CC(C)C)c(=O)c2c1c1ccccc1n2C,16.8%
21,O=[N+]([O-])c1ccc(Nc2ccccc2)cc1,-0.75%

row,SMILES,"hERG current change (%, negative = inhibition) at 10uM"
1,C#CCOCCOCCOCCNc1nc(N2CCN(C(=O)[C@H](C(C)C)n3cc(CCO)nn3)CC2)nc(N2CCN(C(=O)[C@H]([C@@H](C)CC)n3cc(CCCC[NH3+])nn3)CC2)n1.[Cl-],11.9%
2,CCCCN1C(=O)NC(=O)C2(Cc3c(nc4ccccn4c3=O)N3CCc4ccccc4C32)C1=O (stereo not shown),-16.6%
3,Cc1onc(-c2c(Cl)cccc2Cl)c1COC(=O)c1ccc(Cl)cc1,10.8%
4,COc1ccc(NC(=O)CCN2CCN(S(=O)(=O)c3ccc(Br)cc3)CC2)cc1,-4.14%
5,CN([C@@H](C(=O)OC(C)(C)C)c1ccccc1)S(=O)(=O)c1cccc(S(=O)(=O)N(C)[C@@H](C(=O)OC(C)(C)C)c2ccccc2)c1,14.3%
6,CCOc1ccc(C2/C(=C(\O)c3cccc(OC)c3)C(=O)C(=O)N2c2cc(C)on2)cc1OC (stereo not shown),8.06%
7,Cc1nc(S(=O)(=O)c2ccc(Cl)cc2)c(N(C)C)o1,16.9%
8,Cc1ccc(CN2CCCC(C(=O)c3ccc4c(c3)OCO4)C2)cc1C (stereo not shown),-64.6%
9,Cc1cc(C(=O)OCC(=O)Nc2cc(S(=O)(=O)N3CCOCC3)ccc2Cl)c(C)o1,-44.2%
10,O=C(Nc1cccc(-c2nn[nH]n2)c1)c1csc2c1CCCC2,7.22%
11,Cc1ccc(-c2c(C(=O)N/N=C/C3CCCCC3)nnn2-c2nonc2N)cc1,4.87%
12,Cc1ccc(CCNC(=O)c2ccc(NC3=NC4CS(=O)(=O)CC4S3)cc2)cc1 (stereo not shown),10.5%
13,COC(=O)[C@]1(C)CCC[C@@]2(C)C3CC[C@@]4(C)C[C@]3(CCC21)CC(=O)N4 (stereo partly shown),8.4%
14,COCCN1C(=O)NC(=O)/C(=C\c2ccc(Br)cc2)C1=O,29.9%
15,CCOc1cccc(N2C(=O)CC(N(CCc3ccc(OC)c(OC)c3)C(=O)CC)C2=O)c1 (stereo not shown),24.9%
16,Cc1ccc(C(NC(=O)C(C)C)c2cc([N+](=O)[O-])c3cccnc3c2O)cc1 (stereo not shown),-9.48%
17,Cc1ccc(NC(=O)CSc2n[nH]c(-c3cccnc3)n2)c(Br)c1,16%
18,COCCn1nnnc1C(c1cccs1)N1CCN(c2cc(C)ccc2C)CC1.Cl (stereo not shown),-4.62%
19,COc1ccc(S(=O)(=O)N(CC(=O)NCc2ccccn2)c2ccc(Cl)cc2)cc1,13.3%
20,COc1cccc(/C(O)=C2/C(=O)C(=O)N(c3cc(C)on3)C2c2cccs2)c1 (stereo not shown),16.3%
21,O=S(=O)(c1cccs1)n1cnc2ccccc21,7.37%

row,SMILES,"hERG current change (%, negative = inhibition) at 10uM"
1,O=C(CCCN1C(=O)c2ccccc2C1=O)N1CCOCC1,5.44%
2,Clc1ccc(Cn2c(-c3cccnc3Cl)nc3ccccc32)c(Cl)c1,-22.1%
3,Cc1ccc(COCCN2CCN(S(=O)(=O)c3ccccc3)CCC2=O)cc1,-0.87%
4,CCN(Cc1ccccc1)c1ccc(/C=N/NS(=O)(=O)c2cccc([N+](=O)[O-])c2)cc1,10.3%
5,FC(F)Oc1ccc(-n2cc(-c3ccc(Cl)cc3)[n+]3c2CCCCC3)cc1.[Br-],-78.3%
6,COc1cc(/C=N/NC(=O)c2cc(-c3ccccc3OC(C)C)nc3ccccc23)ccc1O,-2.25%
7,COC(=O)CCC(=O)Nc1ccc(S(=O)(=O)N2CCCCCC2)cc1,-19.6%
8,COc1ccc(Br)cc1CNC(=O)C1CCN(S(=O)(=O)N2CCC(C)CC2)CC1,-35%
9,O=C(NCC1CCN(Cc2ccc(F)cc2)CC1)Nc1cc(F)ccc1F,-65.1%
10,CCCCCCC(=O)N1C/C=C\C(c2ccc(OC)cc2)N(Cc2ccc(F)cc2)C(=O)C1 (stereo not shown),-43.7%
11,C/C(=N/NC(=O)CNC(=O)COc1cccc(C)c1)c1ccco1,-1.9%
12,O=C(O)CCC(=O)Nc1ccc(Sc2ccc([N+](=O)[O-])cc2)cc1,-16%
13,CC1CCN(CCc2nc3cc(NC(=O)COc4ccccc4)ccc3n2C)CC1,-68.4%
14,COc1ccc(-c2oc3c(OC)c(OC)c(OC)c(O)c3c(=O)c2OC)cc1OC,1.37%
15,CCOC(=O)Cc1csc(NC(=O)Nc2cccc(Cl)c2)n1,22.5%
16,Cc1ccc(S(=O)(=O)CC(=O)Nc2nc3ccc(S(N)(=O)=O)cc3s2)cc1,9.02%
17,Cc1cc[n+]2c3c(cccc13)CCC2.[Cl-],17.4%
18,O=C(COC(=O)/C=C/c1cccs1)Nc1nc(-c2cccc(Br)c2)cs1,11.1%
19,CC(C)C[C@H](NC(=O)C1CCN(S(=O)(=O)c2ccccc2)CC1)C(=O)NCc1ccncc1,12.7%
20,COc1ccccc1CNC(=O)COC(=O)Cc1cccc(F)c1,1.78%
21,O=C(Nc1ccc([N+](=O)[O-])cc1)c1cc2ccccc2nc1Cl,-4.85%

row,SMILES,"hERG current change (%, negative = inhibition) at 10uM"
1,COc1ccc(C(C)NC(=O)c2ccncc2)cc1OC (stereo not shown),11.1%
2,N#Cc1cccc2cnccc12,4.95%
3,c1ccc(Sc2nc(N3CCCCC3)nc(N3CCCCC3)n2)nc1,-38.7%
4,COc1ccc(CC(=O)Nc2ccc(S(=O)(=O)Nc3ncccn3)cc2)cc1,6.28%
5,COc1ccc(CC(=O)OCC(=O)Nc2ccc3c(c2)OCCO3)cc1OC,23.7%
6,O=C(COC(=O)c1ccccc1NS(=O)(=O)c1cc([N+](=O)[O-])ccc1Cl)c1ccccc1,-9.54%
7,Cc1ccc(N2CC(C(=O)NCCCn3ccnc3)CC2=O)cc1 (stereo not shown),1.56%
8,O=C(O)c1ccc(Br)cn1,9.73%
9,CC(=O)Nc1ccc(NC(=O)CSc2nc3ccccc3o2)cc1,14.2%
10,COc1ccc(-c2nc(SCC(=O)Nc3nccs3)c(-c3ccc(Cl)cc3)[nH]2)cc1,9.59%
11,CN(C)c1ccc(S(=O)(=O)NCC(=O)NCc2ccccc2)cc1[N+](=O)[O-],5.27%
12,CN1C(=O)NC(c2ccccc2[N+](=O)[O-])C2=C1CC(C)(C)CC2=O (stereo not shown),24.8%
13,CN1CCN(CCNC(=O)c2cc3c(=O)n(C)c4ccccc4c3n2C)CC1,12.2%
14,COC(=O)c1ccc(N2NC(=O)/C(=C/c3cc(OC)c(OC)c(OC)c3)C2=O)cc1,6.87%
15,CS(=O)(=O)c1ccc(C(=O)NCCN2C(=O)S/C(=C\c3cccnc3)C2=O)cc1[N+](=O)[O-],1.32%
16,Cc1ccc(OCCC(=O)Nc2ccccc2C(=O)N2CCCCC2)cc1,-12.7%
17,COC(=O)c1c(NC(=O)c2ccco2)sc2c1CCN(C(C)C)C2.Cl,-62.5%
18,O=C(CSc1cccc[n+]1[O-])Nc1cc([N+](=O)[O-])ccc1Cl,18.2%
19,CCCOc1ccc(C(=O)NNC(=S)NC(C)=O)cc1,9.17%
